Measured values published in the supplement of paper PMC4967469.
The IC50 comes from the fitted curve, where viability falls to half of the control; a limit (>, <) means that the fit lies beyond the doses tested. AUC is the area under the same curve over the 256-fold range up to the top dose, as a fraction; the more sensitive the line, the further below 1. For some of these results: An inferred top dose was derived from the fitted curves, not read from the paper. For some of these results: Drugs with an entry number were screened twice under separate entries, and the two screens often disagree.

Assays:
Assay in all cases: Viability of human cancer cell lines after 72 h of drug (GDSC screen)
[1] = compound: CCOc1nc(NC(=O)Cc2cc(OC)ccc2OC)cc(N)c1C#N [JNK Inhibitor VIII]; conditions: top dose 10 µM; top dose inferred
Experimental: (§1)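 Human cancer cell lines in 384-well plates, medium with 10% serum, drug for 72 h over a 256-fold dose range (nine 2-fold or five 4-fold steps up to the top dose). Adherent lines were fixed and stained with the nucleic acid dye Syto60, suspension lines read with resazurin; signal relative to control wells, capped at 0 and 100%. One two-parameter sigmoid per drug and line, fitted in a mixed model over all curves with the slope shared within a line.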

[2] = compound: CN1CCN(c2ccc([N+](=O)[O-])c3no[n+]([O-])c23)CC1 [NSC-207895]; conditions: top dose 20 µM; top dose inferred
Experimental: as §1

[3] = compound: Cc1sc2c(c1C)C(c1ccc(Cl)cc1)=N[C@@H](CC(=O)OC(C)(C)C)c1nnc(C)n1-2 [JQ1]; conditions: top dose 1 µM; screen: GDSC drug entry 1218; top dose inferred
Experimental: as §1

[4] = compound: Cc1ccc(C(=O)N(CCCN)[C@@H](c2nc3cc(Cl)ccc3c(=O)n2Cc2ccccc2)C(C)C)cc1 [SB-715992]; conditions: top dose 0.128 µM; top dose inferred
Experimental: as §1

[5] = compound: c1ccc2c(CCNc3ccc(Nc4ccncc4)cc3)c[nH]c2c1 [JNJ-26854165]; conditions: top dose 10 µM
Experimental: as §1

[6] = compound: O=C(/C=C/c1cccc(S(=O)(=O)Nc2ccccc2)c1)NO [Belinostat]; conditions: top dose 20 µM; top dose inferred
Experimental: as §1

[7] = compound: CC(=O)O[C@@]12CO[C@@H]1C[C@H](O)[C@@]1(C)C(=O)[C@H](O)C3=C(C)[C@@H](OC(=O)[C@H](O)[C@@H](NC(=O)OC(C)(C)C)c4ccccc4)C[C@@](O)([C@@H](OC(=O)c4ccccc4)[C@H]21)C3(C)C [Docetaxel]; conditions: top dose 0.0125 µM
Experimental: as §1

[8] = compound: CC1(C)CNc2cc(NC(=O)c3cccnc3NCc3ccncc3)ccc21 [AMG-706]; conditions: top dose 2 µM; top dose inferred
Experimental: as §1

[9] = compound: COCC[n+]1c2c(n(Cc3cnccn3)c1C)C(=O)c1ccccc1C2=O [YM155]; conditions: top dose 5.12 µM
Experimental: as §1

| Cell Line | AUC [1] | IC50 [1] [nM] | AUC [2] | IC50 [2] [nM] | AUC [3] | IC50 [3] [nM] | AUC [4] | IC50 [4] [nM] | AUC [5] | IC50 [5] [nM] | AUC [6] | IC50 [6] [nM] | AUC [7] | IC50 [7] [nM] | AUC [8] | IC50 [8] [nM] | AUC [9] | IC50 [9] [nM] |
| --- | --- | --- | --- | --- | --- | --- | --- | --- | --- | --- | --- | --- | --- | --- | --- | --- | --- | --- |
| EMC-BAC-1 (lung adenocarcinoma, adherent) | 0.975 | > 10000 | 0.923 | > 20000 | 0.982 | > 1000 | 0.795 | 69.2 | 0.82 | 6790 | 0.576 | 2070 | 0.593 | 1.46 | 0.977 | > 2000 | 0.237 | 48.8 |
| MOLT-13 (T-cell lymphoblastic leukaemia, suspension) | 0.988 | > 10000 | 0.837 | 11200 | 0.653 | 157 | 0.555 | 11.1 | 0.93 | > 10000 | 0.069 | < 78.1 | 0.871 | 9.37 | 0.989 | > 2000 | 0.025 | < 20 |
| OV-7 (ovary, adherent) | 0.942 | > 10000 | 0.805 | 17200 | 0.951 | > 1000 | 0.936 | > 128 | 0.906 | > 10000 | 0.441 | 796 | 0.692 | 3.59 | 0.961 | > 2000 | 0.112 | < 20 |
| UWB1.289 (ovary, adherent) | 0.963 | > 10000 | 0.917 | > 20000 | 0.973 | > 1000 | 0.916 | > 128 | 0.918 | > 10000 | 0.493 | 1190 | 0.866 | > 12.5 | 0.967 | > 2000 | 0.209 | 27.5 |
| RCC-JW (kidney, adherent) | 0.916 | > 10000 | 0.798 | 9800 | 0.984 | > 1000 | 0.952 | > 128 | 0.919 | > 10000 | 0.452 | 918 | 0.669 | 2.35 | 0.844 | 1490 | 0.027 | < 20 |
| OVK-18 (ovary, adherent) | 0.934 | > 10000 | 0.891 | > 20000 | 0.98 | > 1000 | 0.986 | > 128 | 0.906 | > 10000 | 0.986 | > 20000 | 0.75 | 4.49 | 0.958 | > 2000 | 0.733 | 1610 |
| COR-L321 (lung, suspension) | 0.989 | > 10000 | 0.61 | 2500 | 0.986 | > 1000 | 0.676 | 24.7 | 0.94 | > 10000 | 0.152 | 106 | 0.964 | > 12.5 | 0.986 | > 2000 | 0.027 | < 20 |
| ESO26 (oesophagus, adherent) | 0.988 | > 10000 | 0.862 | 15500 | 0.988 | > 1000 | 0.556 | 11.2 | 0.944 | > 10000 | 0.349 | 490 | 0.823 | 6.82 | 0.984 | > 2000 | 0.026 | < 20 |
| OV-17R (ovary, adherent) | 0.967 | > 10000 | 0.865 | > 20000 | 0.924 | > 1000 | 0.937 | > 128 | 0.95 | > 10000 | 0.332 | 350 | 0.953 | > 12.5 | 0.893 | > 2000 | 0.057 | < 20 |
| OV-56 (ovary, adherent) | 0.942 | > 10000 | 0.886 | > 20000 | 0.988 | > 1000 | 0.943 | > 128 | 0.889 | > 10000 | 0.446 | 894 | 0.84 | 8.07 | 0.945 | > 2000 | 0.055 | < 20 |
| JHOS-2 (ovary, adherent) | 0.973 | > 10000 | 0.425 | 754 | 0.97 | > 1000 | 0.972 | > 128 | 0.942 | > 10000 | 0.5 | 1250 | 0.692 | 2.97 | 0.909 | > 2000 | 0.033 | < 20 |
| SNU-407 (large intestine, adherent) | 0.96 | > 10000 | 0.971 | > 20000 | 0.978 | > 1000 | 0.812 | 83 | 0.954 | > 10000 | 0.452 | 904 | 0.806 | 7.71 | 0.978 | > 2000 | 0.539 | 416 |
| CADO-ES1 (Ewing sarcoma, suspension) | 0.98 | > 10000 | 0.81 | 10700 | 0.966 | > 1000 | 0.829 | 81.8 | 0.944 | > 10000 | 0.216 | 181 | 0.987 | > 12.5 | 0.987 | > 2000 | 0.894 | > 5120 |
| ESO51 (oesophagus, semi-adherent) | 0.958 | > 10000 | 0.925 | > 20000 | 0.971 | > 1000 | 0.879 | > 128 | – | – | 0.439 | 798 | 0.81 | 10.2 | 0.941 | > 2000 | 0.255 | 46.3 |
